# Results: the supplement of paper PMC3334620
# The full ranking holds about 33,000 sequences; the median of “E-score (-0.5 to 0.5)” is about -0.01, and the highest 2% start at about 0.26. The list shows a part of the results.
# Molecular target: Ste12 (UniProt P13574)
# Assay: PBM E-score (8-mer binding enrichment) (E-score (-0.5 to 0.5)); higher = stronger / more preferred TF binding; most listed sequences are background and not binding sites
# Conditions: protein concentration: 200 nM; construct: GST-DNA-binding domain
# Summary of the method: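 Yeast transcription factors, full-length or as DNA-binding domains, were expressed with a GST tag using PURExpress in vitro transcription/translation. At about 100-200 nM they were applied to universal all-10-mer Agilent arrays, double-stranded by primer extension on fresh or once-stripped slides. Fluorescent anti-GST detected bound protein, and masliner normalised the scans. E-scores for ungapped eight-base words, pooled with reverse complements, came from the Universal PBM Analysis Suite.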
row,Sequence,PBM E-score
1,CTAACCCC,-0.104
2,GAGGGATA,-0.18
3,GTCGGCTA,-0.108
4,GGATCGTA,-0.00637
5,CCATTGAA,0.0002
6,CTATCAGC,0.136
7,ACACGTCA,-0.0589
8,ATTCCTCA,0.0459
9,CCGAAACA,0.376
10,CTTGACTA,-0.106
11,AGCTGGAA,-0.135
12,CTCGCGAC,0.0527
13,CCAAGACA,0.0816
14,TACGGGCA,-0.0396
15,ATAGATAG,0.0401
16,ACGCACAT,-0.0688
17,AGTCTTTA,-0.234
18,AGTATCAT,0.113
19,CTCATGAC,0.0559
20,AGACGGCG,-0.147
21,AATCTGTG,-0.0157
22,AACTAGCG,0.0845
23,CCAAGCAG,0.0354
24,AGGCGTGG,-0.219
25,AACCAGTC,-0.053

row,Sequence,PBM E-score
1,AGGGGGTA,-0.105
2,AGCTGGCA,0.0291
3,CCTTGCGA,-0.0403
4,AAACTGGC,0.124
5,ATCAGAAC,-0.0373
6,GCAACGGC,0.0446
7,ATACGGGG,0.0547
8,CTTTCGAC,-0.0743
9,GGCACGTA,-0.00609
10,AGTCGGAG,-0.00714
11,GGCCCTCA,-0.152
12,AGCCCTGG,-0.173
13,GCCACTAC,-0.111
14,ACACATTA,0.148
15,ACGCATAA,0.0839
16,AAAGTACG,0.067
17,GTCATACA,-0.0326
18,GTTTGATA,0.301
19,CGCAATTA,0.125
20,AATAGTAG,0.0106
21,ACAAAGCT,-0.0152
22,AACACACT,0.124
23,CCTAGCGC,-0.0769
24,CAACCGTC,-0.252
25,ACTTTCAC,0.139

row,Sequence,PBM E-score
1,GCCTTCAA,-0.02
2,ATATCGCC,-0.0473
3,AGTGCATG,-0.204
4,TAGCCAAA,0.221
5,ATATTGCA,0.104
6,TGACCCAA,-0.047
7,CTCTAGTC,-0.323
8,ATTATACC,0.0986
9,CGCACGTC,-0.0182
10,GCAATTCA,-0.185
11,GAGCCGTA,-0.0366
12,CACCAATA,0.00356
13,ACCAGATA,0.0459
14,AGACTAAT,-0.0229
15,CATGTAAC,0.245
16,TAGAGTGA,-0.0179
17,CCCCACTC,0.121
18,AGCTGGCG,-0.256
19,ACCTGCTC,-0.0508
20,ACCGTCAC,-0.141
21,CTTAGGCA,-0.304
22,CGTTGTAG,0.049
23,AACGCTTA,-0.0484
24,TATGCGAA,0.091
25,AAGAGGTA,0.114

row,Sequence,PBM E-score
1,GACATCTC,-0.0784
2,CTGGGGTC,-0.0744
3,CGCTATTA,0.0181
4,AGGTATCG,0.167
5,CAAAGGAA,0.16
6,AAGTCTAT,-0.0803
7,CATTTGGG,-0.0669
8,AACCTGTA,0.0256
9,GACCCCGC,0.199
10,ACTATTTG,0.066
11,AGTGGACG,0.0409
12,ATGCCGAA,0.0285
13,GAAGACGA,-0.0462
14,ACGTTGCA,0.0593
15,ATTCGAAT,0.268
16,CCACCCTC,0.119
17,CCCAGGAA,-0.0197
18,CTTGGCTA,0.0252
19,CCTGGACG,-0.194
20,AACTAGGT,0.0822
21,ACGTTCCA,0.135
22,ACGCAATC,-0.0921
23,AACTGAGG,0.139
24,GGTGAACA,-0.235
25,AATGACTG,-0.157

row,Sequence,PBM E-score
1,AGCAATTA,0.0971
2,AACCACAA,0.185
3,GCGCCTTA,-0.0184
4,CGAAGCCA,-0.0797
5,AGGTACAA,-0.158
6,ATTCCGAC,0.112
7,CGGAGGCA,-0.0443
8,CGACAGAC,-0.00066
9,GTAACTAC,0.0102
10,AAATCTCT,0.151
11,AGCGGTTC,0.00472
12,ACACCTAA,0.0318
13,ACGGAATG,-0.0943
14,GGACTGAA,-0.0764
15,CCAGTGTC,-0.0683
16,AATCCGAT,0.188
17,CAGAAACA,0.156
18,GCAAACTA,0.207
19,ACTTGAAG,0.119
20,ATTCATCG,0.0816
21,CGTGCCGC,-0.168
22,ACACTGAG,0.057
23,ATCTCTGA,-0.0389
24,CCTAACCG,-0.216
25,CAAAACGG,0.302

row,Sequence,PBM E-score
1,GCTCTTCC,-0.115
2,AAACCGAC,0.198
3,AAAGTGGT,0.00299
4,ACACATAC,-0.134
5,ATCAAGCC,0.0686
6,TCATAAAA,0.231
7,CCGCGGGC,0.179
8,CTAAATGA,-0.0349
9,AAGCCCTC,-0.0807
10,CTTCATCC,0.0361
11,CTCGAGCA,-0.0319
12,CGGCCTTA,0.0449
13,ACAAGTGC,-0.149
14,AGAATCAT,-0.00992
15,GCGTGGCC,-0.116
16,ATTGGTAA,0.143
17,AGCGATGC,-0.23
18,ACGGGGAA,0.13
19,AAACCAGA,0.0662
20,ACAGATGA,-0.0786
21,AACACCCT,-0.0687
22,GGGAAACC,0.0292
23,AAATCCGG,0.0201
24,GAACCGAA,-0.113
25,CAAAAGCA,0.0531

row,Sequence,PBM E-score
1,GTGAAAAC,0.0815
2,AGCGAAGC,-0.267
3,AAGTTGAC,0.0703
4,CATCACCC,-0.0102
5,GGAGCAAC,-0.0379
6,ACAGCGCT,0.132
7,AACTTACG,-0.172
8,CAGGAAAC,-0.0383
9,GTACTATA,0.0549
10,CCGAGACC,0.0929
11,TTAATCAA,0.212
12,ACAGTCTA,-0.156
13,CCACTTGA,0.198
14,TAGCACTA,-0.138
15,GGGAATAC,-0.0655
16,GGATGCCA,-0.217
17,GGTCAGTA,-0.179
18,GCTATTAC,0.165
19,CTAAACAA,0.16
20,ATCCCCCG,0.0216
21,ACCAACCT,0.0089
22,CGAGGGGA,0.0767
